# Measured values as given in the supplement of paper PMC10037445.
# The full ranking holds about 2,900 compounds; the median of “NF-kB SEAP reporter activity, fold change vs agonist alone” is about 0.99, and the highest 2% start at about 2.6. The list shows a part of the results.
# Columns and labels:
# RAW-Dual [1] = assay: NF-kB SEAP reporter activity, fold change vs agonist alone; cytotoxicity flag (confluency mask): not cytotoxic; higher = enhanced NF-kB activity
# In short: (§1)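 RAW-Dual macrophages were seeded in DMEM at 50,000 cells/well in 384-well plates, given 50 nL of library stock by pin tool, and given a PRR agonist 1 h later. Plates were held at 37 °C, 5% CO2 for 20 hours, after which supernatant was read for IRF by QuantiLuc luminescence and for NF-κB by QuantiBlue absorbance at 620 nm. Reporter activity is expressed as fold change over wells that received agonist alone. A well was called cytotoxic when IncuCyte confluency fell below 70% of agonist controls in both mask sets.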
# RAW-Dual [2] = assay: NF-kB SEAP reporter activity, fold change vs agonist alone; higher = enhanced NF-kB activity
# In short: as §1
# RAW-Dual [3] = assay: NF-kB SEAP reporter activity, fold change vs agonist alone; cytotoxicity flag (confluency mask): cytotoxic (confluency <70% of control); higher = enhanced NF-kB activity
# In short: as §1
# [4] = agonist: ODN 1826 (TLR9) 0.5 ug/mL
# [5] = library stock concentration (final ~1000-fold dilution): 10 mM, cytotoxicity flag (confluency mask): not cytotoxic, agonist: Imiquimod (TLR7) […]
# [6] = agonist: Pam2CSK4 (TLR2/6) 0.1 ug/mL
# [7] = agonist: Pam3CSK4 (TLR2/1) 0.1 ug/mL
# [8] = library stock concentration (final ~1000-fold dilution): 10 mM, cytotoxicity flag (confluency mask): not cytotoxic, agonist: MPLA (TLR4) […]
smiles,measurement,setting,value
O=C1NC(=O)C(c2cnc3ccccn23)=C1c1cn2c3c(cc(F)cc13)CN(C(=O)N1CCCCC1)CC2 (library stock concentration (final ~1000-fold dilution): 10 mM),NF-kB SEAP reporter activity,RAW-Dual [1]; agonist: LPS (TLR4) 0.1 ug/mL,3.19
same,NF-kB SEAP reporter activity,RAW-Dual [1]; [4],2.72
O=C1NC(=O)C(c2cnc3ccccn23)=C1c1cn2c3c(cc(F)cc13)CN(C(=O)N1CCCCC1)CC2,NF-kB SEAP reporter activity,RAW-Dual [2]; [5],2.62
Cc1ccc(S(=O)(=O)c2ccc([N+](=O)[O-])o2)cc1,NF-kB SEAP reporter activity,"RAW-Dual [2]; library stock concentration (final ~1000-fold dilution): 10 mM, cytotoxicity flag (confluency mask): cytotoxic (confluency <70% of control), agonist: Imiquimod (TLR7) […]",0.219
same,NF-kB SEAP reporter activity,"RAW-Dual [2]; library stock concentration (final ~1000-fold dilution): 10 mM, cytotoxicity flag (confluency mask): cytotoxic (confluency <70% of control), agonist: MPLA (TLR4) […]",0.225
Cc1ccc(S(=O)(=O)c2ccc([N+](=O)[O-])o2)cc1 (library stock concentration (final ~1000-fold dilution): 10 mM),NF-kB SEAP reporter activity,RAW-Dual [3]; agonist: LPS (TLR4) 0.1 ug/mL,0.387
same,NF-kB SEAP reporter activity,RAW-Dual [3]; [4],0.184
same,NF-kB SEAP reporter activity,RAW-Dual [3]; [6],0.0691
same,NF-kB SEAP reporter activity,RAW-Dual [3]; [7],0.14
Cc1cn[nH]c1 (library stock concentration (final ~1000-fold dilution): 10 mM),NF-kB SEAP reporter activity,RAW-Dual [1]; agonist: LPS (TLR4) 0.1 ug/mL,0.88
same,NF-kB SEAP reporter activity,RAW-Dual [1]; [4],1
same,NF-kB SEAP reporter activity,RAW-Dual [1]; [6],1.04
same,NF-kB SEAP reporter activity,RAW-Dual [1]; [7],1.01
Cc1cn[nH]c1,NF-kB SEAP reporter activity,RAW-Dual [2]; [5],0.918
same,NF-kB SEAP reporter activity,RAW-Dual [2]; [8],1.03
CC(C)(C(=O)O)c1ccc(C(O)CCCN2CCC(C(O)(c3ccccc3)c3ccccc3)CC2)cc1.Cl (centres undefined),NF-kB SEAP reporter activity,RAW-Dual [2]; [5],1.09
same,NF-kB SEAP reporter activity,RAW-Dual [2]; [8],1
CC(C)(C(=O)O)c1ccc(C(O)CCCN2CCC(C(O)(c3ccccc3)c3ccccc3)CC2)cc1.Cl (centres undefined) (library stock concentration (final ~1000-fold dilution): 10 mM),NF-kB SEAP reporter activity,RAW-Dual [1]; agonist: LPS (TLR4) 0.1 ug/mL,0.919
same,NF-kB SEAP reporter activity,RAW-Dual [1]; [4],1.05
same,NF-kB SEAP reporter activity,RAW-Dual [1]; [6],1.07
same,NF-kB SEAP reporter activity,RAW-Dual [1]; [7],1.12
O=C(C=Cn1cnc(-c2cc(C(F)(F)F)cc(C(F)(F)F)c2)n1)NNc1ccccn1 (library stock concentration (final ~1000-fold dilution): 10 mM),NF-kB SEAP reporter activity,RAW-Dual [1]; agonist: LPS (TLR4) 0.1 ug/mL,0.246
same,NF-kB SEAP reporter activity,RAW-Dual [1]; [4],0.652
same,NF-kB SEAP reporter activity,RAW-Dual [1]; [6],0.295
same,NF-kB SEAP reporter activity,RAW-Dual [1]; [7],0.214
O=C(C=Cn1cnc(-c2cc(C(F)(F)F)cc(C(F)(F)F)c2)n1)NNc1ccccn1,NF-kB SEAP reporter activity,RAW-Dual [2]; [5],1.25
same,NF-kB SEAP reporter activity,RAW-Dual [2]; [8],1.12
O=C(Nc1ccccc1Br)NC1CCN(c2ccc(C(F)(F)F)cn2)C1 (centres undefined) (library stock concentration (final ~1000-fold dilution): 10 mM),NF-kB SEAP reporter activity,RAW-Dual [1]; agonist: LPS (TLR4) 0.1 ug/mL,1.02
same,NF-kB SEAP reporter activity,RAW-Dual [1]; [4],0.991
same,NF-kB SEAP reporter activity,RAW-Dual [1]; [6],0.986
same,NF-kB SEAP reporter activity,RAW-Dual [1]; [7],0.645
O=C(Nc1ccccc1Br)NC1CCN(c2ccc(C(F)(F)F)cn2)C1 (centres undefined),NF-kB SEAP reporter activity,RAW-Dual [2]; [5],0.511
same,NF-kB SEAP reporter activity,RAW-Dual [2]; [8],0.601
CC(=O)Cc1cc(=O)c2c(C)cc(O)c(C3OC(CO)C(O)C(O)C3O)c2o1 (centres undefined) (library stock concentration (final ~1000-fold dilution): 10 mM),NF-kB SEAP reporter activity,RAW-Dual [1]; agonist: LPS (TLR4) 0.1 ug/mL,1.21
same,NF-kB SEAP reporter activity,RAW-Dual [1]; [4],1.01
same,NF-kB SEAP reporter activity,RAW-Dual [1]; [6],1.04
same,NF-kB SEAP reporter activity,RAW-Dual [1]; [7],1.22
CC(=O)Cc1cc(=O)c2c(C)cc(O)c(C3OC(CO)C(O)C(O)C3O)c2o1 (centres undefined),NF-kB SEAP reporter activity,RAW-Dual [2]; [5],0.982
same,NF-kB SEAP reporter activity,RAW-Dual [2]; [8],1.02
COc1cc2ncnc(Sc3nnc(C)s3)c2cc1OC (library stock concentration (final ~1000-fold dilution): 10 mM),NF-kB SEAP reporter activity,RAW-Dual [1]; agonist: LPS (TLR4) 0.1 ug/mL,0.223
same,NF-kB SEAP reporter activity,RAW-Dual [1]; [4],0.567
same,NF-kB SEAP reporter activity,RAW-Dual [1]; [6],0.0738
same,NF-kB SEAP reporter activity,RAW-Dual [1]; [7],0.164
COc1cc2ncnc(Sc3nnc(C)s3)c2cc1OC,NF-kB SEAP reporter activity,RAW-Dual [2]; [5],1.29
same,NF-kB SEAP reporter activity,RAW-Dual [2]; [8],0.984
CC(=O)Nc1cccc(-n2c(=O)n(C3CC3)c(=O)c3c(Nc4ccc(I)cc4F)n(C)c(=O)c(C)c32)c1,NF-kB SEAP reporter activity,RAW-Dual [2]; [5],0.2
same,NF-kB SEAP reporter activity,RAW-Dual [2]; [8],0.211
CC(=O)Nc1cccc(-n2c(=O)n(C3CC3)c(=O)c3c(Nc4ccc(I)cc4F)n(C)c(=O)c(C)c32)c1 (library stock concentration (final ~1000-fold dilution): 10 mM),NF-kB SEAP reporter activity,RAW-Dual [1]; agonist: LPS (TLR4) 0.1 ug/mL,0.191
same,NF-kB SEAP reporter activity,RAW-Dual [1]; [4],0.288
same,NF-kB SEAP reporter activity,RAW-Dual [1]; [6],0.0794
same,NF-kB SEAP reporter activity,RAW-Dual [1]; [7],0.142
Cc1nc[nH]c1CN1CCc2c(c3ccccc3n2C)C1=O.Cl (library stock concentration (final ~1000-fold dilution): 2 mM water),NF-kB SEAP reporter activity,RAW-Dual [1]; agonist: LPS (TLR4) 0.1 ug/mL,1.14
same,NF-kB SEAP reporter activity,RAW-Dual [1]; [4],1.09
same,NF-kB SEAP reporter activity,RAW-Dual [1]; [6],1.15
same,NF-kB SEAP reporter activity,RAW-Dual [1]; [7],0.961
Cc1nc[nH]c1CN1CCc2c(c3ccccc3n2C)C1=O.Cl,NF-kB SEAP reporter activity,"RAW-Dual [2]; library stock concentration (final ~1000-fold dilution): 2 mM water, cytotoxicity flag (confluency mask): not cytotoxic, agonist: MPLA (TLR4) […]",1.06
COc1c(O[C@@H]2O[C@H](CO)[C@@H](O)[C@H](O)[C@H]2O)cc2oc(-c3ccc(O)cc3)cc(=O)c2c1O (library stock concentration (final ~1000-fold dilution): 10 mM),NF-kB SEAP reporter activity,RAW-Dual [1]; agonist: LPS (TLR4) 0.1 ug/mL,1.15
same,NF-kB SEAP reporter activity,RAW-Dual [1]; [4],1.21
same,NF-kB SEAP reporter activity,RAW-Dual [1]; [6],1.07
same,NF-kB SEAP reporter activity,RAW-Dual [1]; [7],1.04
COc1c(O[C@@H]2O[C@H](CO)[C@@H](O)[C@H](O)[C@H]2O)cc2oc(-c3ccc(O)cc3)cc(=O)c2c1O,NF-kB SEAP reporter activity,RAW-Dual [2]; [5],0.977
same,NF-kB SEAP reporter activity,RAW-Dual [2]; [8],1.04
Cl.Cn1cc(C(=O)C2CCc3nc[nH]c3C2)c2ccccc21 (centres undefined) (library stock concentration (final ~1000-fold dilution): 10 mM),NF-kB SEAP reporter activity,RAW-Dual [1]; agonist: LPS (TLR4) 0.1 ug/mL,1.01
same,NF-kB SEAP reporter activity,RAW-Dual [1]; [4],0.67
same,NF-kB SEAP reporter activity,RAW-Dual [1]; [6],0.928
same,NF-kB SEAP reporter activity,RAW-Dual [1]; [7],0.877
Cl.Cn1cc(C(=O)C2CCc3nc[nH]c3C2)c2ccccc21 (centres undefined),NF-kB SEAP reporter activity,RAW-Dual [2]; [5],0.775
same,NF-kB SEAP reporter activity,RAW-Dual [2]; [8],0.816
CC(C)CC1NC(=O)C(C(C)C)NC(=O)C2CCCN2C(=O)C(CC(=O)O)NC(=O)C(Cc2c[nH]c3ccccc23)NC1=O (centres undefined),NF-kB SEAP reporter activity,RAW-Dual [2]; [5],0.93
same,NF-kB SEAP reporter activity,RAW-Dual [2]; [8],1.04
CC(C)CC1NC(=O)C(C(C)C)NC(=O)C2CCCN2C(=O)C(CC(=O)O)NC(=O)C(Cc2c[nH]c3ccccc23)NC1=O (centres undefined) (library stock concentration (final ~1000-fold dilution): 10 mM),NF-kB SEAP reporter activity,RAW-Dual [1]; agonist: LPS (TLR4) 0.1 ug/mL,1.01
same,NF-kB SEAP reporter activity,RAW-Dual [1]; [4],0.96
same,NF-kB SEAP reporter activity,RAW-Dual [1]; [6],1.22
same,NF-kB SEAP reporter activity,RAW-Dual [1]; [7],1.05
